Assay results as given in the supplement of paper PMC10338343.
± gives the standard deviation. Only a part is listed here, and it is no random draw.

Each sequence was assayed on MIWI (PIWIL1) piRISC loaded with L1MC piRNA (30 nt) (assay: pre-steady-state target cleavage rate (min^-1); MIWI and MILI are mouse PIWI proteins and EfPiwi is from a freshwater sponge; tags in brackets are library labels; higher = faster piRNA-guided slicing of the target). Conditions: guide: L1MC piRNA 5'p-UAACUAAAUACUAUGCAAGCUGUAGGUCCU; auxiliary factor: 500 nM mouse GTSF1.
Summary of the method: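 Active affinity-purified piRISC carrying one synthetic guide (1 nM) was mixed with a transcribed, DNA-blocked target RNA library […] in HEPES–potassium acetate buffer at 33 °C for 0–8 or 0–960 min, with or without 500 nM GTSF1 partner protein. Uncleaved targets were then sequenced and normalised to depth and to weakly complementary targets. Three trials were pooled, and k3 was capped at 0.0001 min^-1. A burst-and-steady-state fit was applied to obtain the pre-steady-state cleavage rate.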
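Also: 1 nM active piRISC with 0.1 nM target library at 33 °C single turnover.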

Row | Sequence | pre-steady-state target cleavage rate
1 | UCCUGGUACAGCUUGCAUAGAUUUUAGUUA | 0.0613 ± 0.012
2 | UCCUCCUACAGCUUGCAUAGUAUUAAGUUA | 0.435 ± 0.032
3 | UCCUGGAACAGCAAGCAUAGUAUUUAGUUA | 0.942 ± 0.065
4 | UGGUCCUACAGCUUGCAUAGUUUUUAGUUA | 0.35 ± 0.02
5 | UCGACCUACAGCUUGCAUACUAUUUACUUA | 0.217 ± 0.025
6 | UCCUGGAUGUGCCUUGCAUAGUAUUUAGUUA | 0.421 ± 0.039
7 | UCCUGGAACACCUUGCAUAGUAUUUAGAUA | 0.233 ± 0.048
8 | AGGACGUACAGCUUGCAUUGUAUUUAGUUA | 0.718 ± 0.047
9 | UCCUGGAUGUGCUUGCAUAGUAUUUUGUAA | 0.0569 ± 0.016
10 | UCCUGCUACAGGUUGCAUAGUAUUUAGAUA | 0.383 ± 0.083
11 | UGGACCUACACCUUGCAUUGUAUUUAGUUA | 0.637 ± 0.026
12 | UCGACCAUCAGCUUGCAUAGUAUUUAGUAA | 0.904 ± 0.048
13 | AGAACCUACAGCUUGCAUAGUAUUUAGUUA | 1.43 ± 0.047
14 | UCCUGGUACAGCUUGUCAUAGUAUUUAGUUA | 0.201 ± 0.02
15 | UCCUGGAUGUCCUUGCAUAGUAUUUAGAUUA | 0.0221 ± 0.0073
16 | UCCUCCUACAGCUUGCAUAGUAUUCUAGUUA | 0.721 ± 0.072
17 | UCCUGCUACAGCUUGGAUAGUAUUAAGUUA | 0.453 ± 0.051
18 | UCCUGGAUGUGCUUGCUUAGUAUUUAGAUA | 0.0448 ± 0.011
19 | UCCACCUACAGCUUGCAUAGUUUUUACUUA | 0.173 ± 0.03
20 | UGGACCUACAGCUUGCAUAGUUUUAAGUUA | 0.198 ± 0.016

Row | Sequence | pre-steady-state target cleavage rate
21 | UCGACCUACAGCUUGCAAAGUAUUUUGUUA | 0.824 ± 0.041
22 | UCCUGGAUGUCCUUGCAUAGUAUUUAGGUA | 0.0254 ± 0.0077
23 | UCGACCUUCAGGUUGCAUAGUAUUUAGUUA | 1.04 ± 0.043
24 | UCCUGGAUGAGCUUGCAUAAUAUUUAGUUA | 0.382 ± 0.042
25 | UCCUGGAACAGCUUGCAUAGUUUUUAGAUA | 0.0774 ± 0.017
26 | UCCUGGAUGUCCUUGCAUAGUAUGUUAGUUA | 0.0145 ± 0.0049
27 | UCCUGGAUCAGCUUGGAUAGAAUUUAGUUA | 0.0979 ± 0.015
28 | UCCUGGUACUGCUUGCAUAGAAUUUAGUUA | 0.192 ± 0.051
29 | UCCUGGAUGUCCUUGUAUAGUAUUUAGUUA | 0.0898 ± 0.016
30 | UCCUGGUACAGCUUGCAUAGUAUUUAAGUUA | 0.551 ± 0.071
31 | AGGACCUACAGCUUGCAUUCUAUUUAGUAA | 0.262 ± 0.057
32 | UGGACCAUGAGCUUGCAUAGUAUUUAGAAA | 0.284 ± 0.034
33 | AGGACCUACAGCUUGGAUAGUAAUUAGUUA | 0.857 ± 0.054
34 | AGGACCUACAGCUUGCUUAGUAUAUAGUUA | 0.762 ± 0.071
35 | UCCUGCUUCAGCUUGCAUAGUUUUUAGUUA | 0.339 ± 0.025
36 | UCCUGGAUGAGCUUGCAUAGUACUUUAGUUA | 0.11 ± 0.014
37 | UCCUCCUACAGCAUGCAUAGUAUUUAGUAA | 0.717 ± 0.06
38 | UCCUGGAUGAGCUAGCAUAGUAUUUAGUAA | 0.332 ± 0.029
39 | UCGACCUACUGCUUGCAUACUAUUUAGUUA | 0.345 ± 0.014
40 | UCGACCUACUGCUUGCAUAGUAUUUAGAUA | 0.273 ± 0.023

Same assay, conditions: guide: L1MC piRNA 5'p-UAACUAAAUACUAUGCAAGCUGUAGGUCCU; auxiliary factor: none (no GTSF1)

Row | Sequence | pre-steady-state target cleavage rate
41 | UCCUGGUACAGCUUGCAUAGAUUUUAGUUA | 0.00539 ± 0.0028
42 | UCCUCCUACAGCUUGCAUAGUAUUAAGUUA | 0.017 ± 0.0042
43 | UCCUGGAACAGCAAGCAUAGUAUUUAGUUA | 0.0039 ± 0.0024
44 | UGGUCCUACAGCUUGCAUAGUUUUUAGUUA | 0.0428 ± 0.0092
45 | UCGACCUACAGCUUGCAUACUAUUUACUUA | 0.0153 ± 0.0029
46 | UCCUGGAUGUGCCUUGCAUAGUAUUUAGUUA | 0.0231 ± 0.0067
47 | UCCUGGAACACCUUGCAUAGUAUUUAGAUA | 0.00688 ± 0.0041
48 | AGGACGUACAGCUUGCAUUGUAUUUAGUUA | 0.0403 ± 0.0096
49 | UCCUGGAUGUGCUUGCAUAGUAUUUUGUAA | 0.00775 ± 0.0023
50 | UCCUGCUACAGGUUGCAUAGUAUUUAGAUA | 0.0108 ± 0.0032
51 | UGGACCUACACCUUGCAUUGUAUUUAGUUA | 0.0285 ± 0.0056
52 | UCGACCAUCAGCUUGCAUAGUAUUUAGUAA | 0.0427 ± 0.0068
53 | AGAACCUACAGCUUGCAUAGUAUUUAGUUA | 0.0851 ± 0.013
54 | UCCUGGUACAGCUUGUCAUAGUAUUUAGUUA | 0.00457 ± 0.0026
55 | UCCUGGAUGUCCUUGCAUAGUAUUUAGAUUA | 0.00391 ± 0.0026
56 | UCCUCCUACAGCUUGCAUAGUAUUCUAGUUA | 0.0169 ± 0.0046
57 | UCCUGCUACAGCUUGGAUAGUAUUAAGUUA | 0.0133 ± 0.0025
58 | UCCUGGAUGUGCUUGCUUAGUAUUUAGAUA | 0.00904 ± 0.003
59 | UCCACCUACAGCUUGCAUAGUUUUUACUUA | 0.0106 ± 0.0026
60 | UGGACCUACAGCUUGCAUAGUUUUAAGUUA | 0.0159 ± 0.0045

Row | Sequence | pre-steady-state target cleavage rate
61 | UCGACCUACAGCUUGCAAAGUAUUUUGUUA | 0.0149 ± 0.0024
62 | UCCUGGAUGUCCUUGCAUAGUAUUUAGGUA | 0.00394 ± 0.0024
63 | UCGACCUUCAGGUUGCAUAGUAUUUAGUUA | 0.0361 ± 0.0069
64 | UCCUGGAUGAGCUUGCAUAAUAUUUAGUUA | 0.0246 ± 0.0064
65 | UCCUGGAACAGCUUGCAUAGUUUUUAGAUA | 0.0136 ± 0.0035
66 | UCCUGGAUGUCCUUGCAUAGUAUGUUAGUUA | 0.00476 ± 0.0026
67 | UCCUGGAUCAGCUUGGAUAGAAUUUAGUUA | 0.0151 ± 0.0053
68 | UCCUGGUACUGCUUGCAUAGAAUUUAGUUA | 0.0089 ± 0.0047
69 | UCCUGGAUGUCCUUGUAUAGUAUUUAGUUA | 0.00816 ± 0.0023
70 | UCCUGGUACAGCUUGCAUAGUAUUUAAGUUA | 0.0258 ± 0.0076
71 | AGGACCUACAGCUUGCAUUCUAUUUAGUAA | 0.00441 ± 0.0024
72 | UGGACCAUGAGCUUGCAUAGUAUUUAGAAA | 0.0068 ± 0.0022
73 | AGGACCUACAGCUUGGAUAGUAAUUAGUUA | 0.0269 ± 0.0063
74 | AGGACCUACAGCUUGCUUAGUAUAUAGUUA | 0.0291 ± 0.0082
75 | UCCUGCUUCAGCUUGCAUAGUUUUUAGUUA | 0.0338 ± 0.0073
76 | UCCUGGAUGAGCUUGCAUAGUACUUUAGUUA | 0.00854 ± 0.0028
77 | UCCUCCUACAGCAUGCAUAGUAUUUAGUAA | 0.00778 ± 0.0024
78 | UCCUGGAUGAGCUAGCAUAGUAUUUAGUAA | 0.00644 ± 0.0029
79 | UCGACCUACUGCUUGCAUACUAUUUAGUUA | 0.0294 ± 0.0065
80 | UCGACCUACUGCUUGCAUAGUAUUUAGAUA | 0.0197 ± 0.0035
